Source: the supplement of paper PMC3334620
In all, about 33,000 sequences were measured (“E-score (-0.5 to 0.5)”: median about -0.043, highest 2% from about 0.37 on). The list shows a part of the results.

molecular target: T1, Upc2 (UniProt Q12151); test: PBM E-score (8-mer binding enrichment) (E-score (-0.5 to 0.5)); higher = stronger / more preferred TF binding; most listed sequences are background and not binding sites; details: protein concentration: 200 nM; construct: GST-full length
T1 sequence: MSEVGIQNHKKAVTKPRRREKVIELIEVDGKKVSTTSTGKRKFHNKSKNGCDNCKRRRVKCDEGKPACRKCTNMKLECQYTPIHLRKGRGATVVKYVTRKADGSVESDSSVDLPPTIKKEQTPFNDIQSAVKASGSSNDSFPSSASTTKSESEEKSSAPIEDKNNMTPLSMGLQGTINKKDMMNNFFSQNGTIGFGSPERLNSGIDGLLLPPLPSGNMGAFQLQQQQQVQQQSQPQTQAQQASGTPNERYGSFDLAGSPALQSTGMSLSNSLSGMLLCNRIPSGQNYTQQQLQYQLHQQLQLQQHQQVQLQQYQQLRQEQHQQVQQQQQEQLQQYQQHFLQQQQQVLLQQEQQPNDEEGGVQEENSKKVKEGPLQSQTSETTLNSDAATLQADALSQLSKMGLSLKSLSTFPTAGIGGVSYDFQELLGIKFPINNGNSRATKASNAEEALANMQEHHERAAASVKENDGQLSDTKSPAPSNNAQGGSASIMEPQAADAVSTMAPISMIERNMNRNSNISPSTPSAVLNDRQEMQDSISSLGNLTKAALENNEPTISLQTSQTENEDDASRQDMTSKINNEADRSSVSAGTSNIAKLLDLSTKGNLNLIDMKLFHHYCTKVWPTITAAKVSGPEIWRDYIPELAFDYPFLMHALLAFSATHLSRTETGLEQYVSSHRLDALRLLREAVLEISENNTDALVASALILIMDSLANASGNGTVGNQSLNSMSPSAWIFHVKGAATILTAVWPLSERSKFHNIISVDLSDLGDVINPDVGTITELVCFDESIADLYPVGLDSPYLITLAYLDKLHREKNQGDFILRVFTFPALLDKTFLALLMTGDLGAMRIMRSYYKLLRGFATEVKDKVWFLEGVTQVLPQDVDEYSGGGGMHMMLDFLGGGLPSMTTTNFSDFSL
Protocol: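 Universal 'all 10-mer' protein binding microarrays (Agilent AMADID 015681) probed with GST-tagged S. cerevisiae TFs (full-length or DBD) made by in vitro transcription/translation (PURExpress), about 100-200 nM. Bound TF was detected with fluorescent anti-GST. Each ungapped 8-mer (which stands for itself and its reverse complement) is scored by the PBM enrichment score (E-score), a modified Wilcoxon-Mann-Whitney statistic from -0.5 to +0.5, computed with the Universal PBM Analysis Suite. Scale: above 0.35 generally sequence-specific binding.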

Sequence	PBM E-score
TCCCTCCA	-0.196
AGCCTAGA	-0.0726
GTGCGTAA	0.211
ACAAGAGC	-0.125
CAGACAGC	-0.264
ATGTATTG	-0.0394
AATTCCTG	-0.147
CTTCGCAC	0.102
TGGAACAA	0.0155
AATGCGCA	0.0579
AGTTACGG	0.0766
GTCTCATA	-0.0606
CATTTTTC	0.0327
TCACCACA	-0.152
ATTACAAA	0.00437
CAGGTATC	-0.065
AACAATAC	0.185
AAATCCGC	-0.119
CGGCACAA	-0.0958
AGATGTTC	-0.217
ACAATTCG	0.167
GACCCACA	0.0499
ATACGAAA	0.47
CCGCCCGA	-0.183
AGACCCTA	-0.224

Sequence	PBM E-score
CAAGCCAC	-0.159
AAGTCTTC	-0.115
AAATACGC	0.212
ATTCAGCG	0.127
CGCTGCAC	-0.0173
GCCGTAAC	0.225
CTGTTAAA	0.0743
AAATCGAG	-0.011
ACCAGGGG	-0.228
ACTAATAC	0.148
CCATGTAC	0.0673
CGGCCTTC	0.00408
GGTTTGTA	-0.0874
ATGCAACA	-0.0324
CACAGTCG	0.147
AACCAGGG	-0.0946
TATATCCA	0.00119
GTAGGAAA	-0.114
GCTCCGTA	0.349
ATATATAC	0.265
AGCTCCCG	-0.113
CATTCAAA	-0.0367
AAAGCTGG	-0.155
GTGTCAAC	-0.202
AGAATTTG	-0.00145

Sequence	PBM E-score
GCCTCAGA	0.0169
CAACCCCG	-0.179
CGAACTCC	0.0746
AACCCAGC	-0.148
GCCTATAA	0.0593
GCGGACAC	-0.0631
TACCGATA	0.226
AGGGTTGG	-0.115
CAATTTTA	0.119
AATTGTCT	-0.00489
AAGATGCT	0.109
GCGACAGC	0.079
AAGAATGA	-0.114
CCCGTCCG	-0.269
CCAATCCA	-0.225
ACTCCAGC	-0.0569
ACCGTCAT	-0.18
ACCACTAG	-0.172
CCTCGACG	-0.194
CGGCCCAG	-0.0171
CAGGGGTA	-0.167
CGCTAGCG	0.0519
AACCTTGT	-0.16
TCTTCCCA	-0.357
CAAGCACG	0.0717

Sequence	PBM E-score
AACCCCAT	-0.187
GACTCCCC	-0.156
GCGGCGTA	0.227
AACCCCAC	-0.0684
ACGCGAAG	0.154
AAACACGG	0.0544
AGAGGGGG	-0.0797
ACATGGCA	-0.00764
ACATTGTG	-0.243
CAACCCGA	0.198
AAACTACC	-0.0984
ATTAATTA	-0.0314
AGGAGTGA	-0.156
ACGTGGCC	0.0339
CGTTTCGA	0.21
CGAGGCAG	0.152
ATTTCAAC	-0.0478
TCATGCGA	0.129
AAGTTGGG	-0.158
TACCTCTA	-0.0863
CTCCGAGA	-0.112
ACGACGGA	0.37
CAGGGAGA	-0.19
GGAAACTA	-0.177
ATTTCGCG	0.124

Sequence	PBM E-score
AACTCTGC	-0.237
GTTCATTA	0.111
GTTTAGAA	0.313
CAGTCTTA	0.0205
GGCCCGCC	-0.126
GAAAATAA	0.0199
CATTGCTC	-0.0125
ACCAGGTG	-0.172
GAGACCCA	-0.151
AACTAAGC	0.0896
GAAAACTC	-0.114
ATTCGTTC	0.428
ATCTGAGC	0.0686
CTGAGATC	-0.189
AGAAGGAC	-0.223
AGAAGGTA	-0.0265
AGTTGAGC	-0.0376
CTGGCGAA	-0.174
CCACAGGG	-0.144
AAGTCGAG	-0.135
AAAATGCT	-0.0957
ATCAGTGA	-0.182
GGAGTTAA	-0.163
CGATGTCC	0.17
CGTGGTCC	-0.104

Sequence	PBM E-score
CCTATGAC	-0.0458
CACTGTAA	0.0592
CTGACACA	-0.319
ATGTTCAG	-0.193
ATAAGAAG	0.197
ACAAGAGT	-0.0633
GAGGGGGC	-0.169
ATACGCCC	0.279
CATTACTA	0.00651
AGGTTCTA	-0.0689
ATCCACGA	-0.0435
CAAGCAGC	-0.143
ACGGTCTA	0.174
ACGTATTG	0.209
GCACGGAC	-0.0287
TGCTTACA	-0.0544
CGCGTCTA	0.0391
AGCAACAG	-0.145
GCTCCGGA	0.0904
AGGATCGG	-0.00417
AGACCCGC	0.0249
GATCAGCA	-0.0232
TAAATCAA	0.132
AGACCCCA	-0.148
ACCGGAGG	-0.186

Sequence	PBM E-score
ATGAGACG	-0.0739
TGAGCCCA	-0.0483
ACAGAGGA	-0.0314
ACGGATCG	0.272
CATATTGG	0.0165
CGATAGAA	0.157
CTTGGCGC	-0.163
GAAATCAA	-0.0817
CAGTTCGC	0.0573
AATAAAGC	0.0828
AAATAGTC	-0.0335
GAGAAGGC	-0.224
CGAGGTGA	0.211
CACTCCCC	-0.0586
CCATGGGG	-0.157
GGAATCTA	-0.146
CACTCTGG	-0.0839
AGCCAATA	-0.0864
CACCACCC	-0.124
CAACCGCA	0.0318
ATGATCTC	-0.0337
CGTACTTA	0.338
